# In paper PMC4336329 (PLoS ONE, 2015):
# Screen size: about 310,000 compounds; about 2,200 (0.71%) showed an effect of 50% or more. The effect is printed as a negative number. The list shows a part of the results.
# Biological target: human ether-à-go-go-related gene (hERG) potassium channel (human, UniProt Q12809)
# Test: primary screen, population patch clamp on CHO cells stably expressing hERG
# Sequence of human ether-à-go-go-related gene (hERG) potassium channel (Q12809 whole entry, looked up): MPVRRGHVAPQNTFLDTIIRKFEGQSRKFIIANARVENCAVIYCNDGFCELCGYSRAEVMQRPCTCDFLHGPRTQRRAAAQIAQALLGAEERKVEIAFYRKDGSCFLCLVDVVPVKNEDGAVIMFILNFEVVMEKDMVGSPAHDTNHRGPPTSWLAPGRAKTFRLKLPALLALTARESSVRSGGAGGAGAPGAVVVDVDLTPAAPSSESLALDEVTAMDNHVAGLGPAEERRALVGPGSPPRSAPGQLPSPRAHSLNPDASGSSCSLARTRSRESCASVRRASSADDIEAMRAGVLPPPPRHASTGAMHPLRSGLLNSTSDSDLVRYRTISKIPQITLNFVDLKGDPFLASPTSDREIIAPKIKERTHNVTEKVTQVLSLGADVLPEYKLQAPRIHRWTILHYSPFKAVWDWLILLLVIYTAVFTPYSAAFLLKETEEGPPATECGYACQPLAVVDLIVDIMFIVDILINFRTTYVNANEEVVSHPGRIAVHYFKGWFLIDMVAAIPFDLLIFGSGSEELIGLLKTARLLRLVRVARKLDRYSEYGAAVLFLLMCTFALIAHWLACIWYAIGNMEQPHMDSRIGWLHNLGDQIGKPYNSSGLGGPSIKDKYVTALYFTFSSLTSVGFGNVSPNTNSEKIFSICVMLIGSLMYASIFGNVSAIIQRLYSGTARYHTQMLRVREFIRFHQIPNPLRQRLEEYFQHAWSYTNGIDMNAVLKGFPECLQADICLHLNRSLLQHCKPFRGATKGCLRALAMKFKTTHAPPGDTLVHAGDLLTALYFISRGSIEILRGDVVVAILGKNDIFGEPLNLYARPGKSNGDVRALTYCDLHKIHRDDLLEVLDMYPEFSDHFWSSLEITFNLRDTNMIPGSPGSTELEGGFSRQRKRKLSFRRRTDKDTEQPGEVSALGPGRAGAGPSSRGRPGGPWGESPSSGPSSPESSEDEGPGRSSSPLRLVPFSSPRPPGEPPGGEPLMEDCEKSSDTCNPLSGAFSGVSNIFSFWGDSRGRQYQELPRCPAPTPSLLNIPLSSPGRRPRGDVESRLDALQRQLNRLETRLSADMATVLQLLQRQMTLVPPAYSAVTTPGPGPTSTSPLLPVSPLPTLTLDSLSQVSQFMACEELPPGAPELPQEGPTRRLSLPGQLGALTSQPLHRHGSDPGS
row,SMILES,"hERG current change (%, negative = inhibition) at 1uM [%]"
1,Cc1ccc(N(C(=O)CNC(=O)c2ccco2)C(C(=O)NC2CCCCC2)c2cccnc2)cc1C (stereo not shown),13.6
2,CN(Cc1nc2ccccc2c(=O)[nH]1)c1ccccc1,8.15
3,CCN(CC(=O)Nc1ccc(NC(C)=O)cc1)C(=O)/C=C/c1ccc([N+](=O)[O-])cc1,6.94
4,CCOC(=O)CNc1nc(Cl)nc(NC(C)(C)C)n1,17.4
5,CCc1ccc(OCC(=O)N/N=C(\C)c2ccccc2OC(F)F)cc1,16.5
6,O=S(=O)(Cc1cc(-c2ccc(Cl)cc2)no1)c1ccccc1,3.33
7,CCn1nccc1C(=O)Nc1ccc(S(=O)(=O)NC23CC4CC(CC(C4)C2)C3)cc1,6.38
8,CCn1cc(C(=O)N[C@@H](CCSC)C(=O)NCCOC)c(=O)c2cc3c(cc21)OCO3,9.43
9,COc1ccc(S(=O)(=O)Nc2nnc(CC(C)(C)C)s2)cc1,10.6
10,Cc1c(C(=O)N2CCN(CCc3ccccc3)CC2)oc2ccccc12,-36
11,CCOCCCNC(=O)c1c[nH]c2ccc(S(=O)(=O)Nc3cccc(OC)c3)cc2c1=O,18.4
12,Cc1ccc(NC(=O)CSc2nc3ncc(Cl)cc3[nH]2)c(C)c1,13.7
13,COc1ccccc1NS(=O)(=O)c1ccc(NC(=O)N2CCCCC2)cc1,14.1
14,Cc1cccc(C)c1NC(=O)COC(=O)c1cc(=O)c2ccccc2o1,10.2
15,CCOC(=O)CC1(NC(=O)C2CCC(=O)N(C3CC3)C2)CCCCC1 (stereo not shown),12.7
16,Cn1c(C(=O)N2CCC(C(N)=O)CC2)cc2cc(Cl)ccc21,6.38
17,CCN(C(=O)CSc1nnc(-c2ccco2)n1CC)c1c(N)n(Cc2ccccc2)c(=O)[nH]c1=O,7.69
18,COC(=O)c1cccc(NC(=O)c2cccc([N+](=O)[O-])c2)c1,7.9
19,CCn1c(CNc2ccc(F)cc2)nnc1SCC#N,11.3
20,O=C(Cc1ccccc1)Nc1ccc(NC(=O)c2ccco2)cc1Cl,6.66
21,Clc1ccc(OCCCCN2CCCCC2)cc1.O=C(O)C(=O)O,-37.4
22,Cc1nc(-c2c(C(F)(F)F)noc2-c2ccc(O)cc2O)cs1,7.28

row,SMILES,"hERG current change (%, negative = inhibition) at 1uM [%]"
1,COc1cc(C2/C(=C(\O)c3ccc4c(c3)CC(C)O4)C(=O)C(=O)N2CCN2CCOCC2)cc(OC)c1OC (stereo not shown),-1.31
2,O=C(Cc1cn2ccsc2n1)Nc1ccccc1Oc1ccccc1,-2.4
3,COc1ccccc1OCC(O)CN1C(=O)NC(C)(C)C1=O (stereo not shown),15.3
4,O=C1CCC(O)CCN1CCSc1ccccc1 (stereo not shown),8.18
5,Cn1c(CNc2ccc(Cl)cc2)nnc1SCc1ccccc1,16.1
6,Cc1ccc(C(=S)NCS(=O)(=O)c2ccc(C)cc2)cc1,16.7
7,CC1(C)Cc2c(sc(NC(=O)C(=O)N3CCCC3)c2C#N)CO1,11.2
8,CC(C)(C)C(=O)N1CCC[C@H]1C(O)(c1ccccc1)c1ccccc1,2.91
9,COc1ccc(-c2csc(NC(=O)c3ccc(S(=O)(=O)N4CCc5ccccc5C4)cc3)n2)cc1,2.55
10,CC1CCN(c2ccc(S(=O)(=O)NC3=NCCCCC3)cc2[N+](=O)[O-])CC1,15
11,COc1ccc2nc(C)cc(Nc3ccc(C)cc3)c2c1.Cl,1.14
12,CCCn1c(N)c(C(=O)CSc2nc3ncc(Cl)cc3[nH]2)c(=O)n(C)c1=O,9.02
13,O=C(CN1CCN(c2ccccn2)CC1)Nc1nc2ccccc2s1,-16.9
14,CCCN1CNC(=S)N(c2ccccc2OCC)C1,10.6
15,CN(C)c1ccc(C(=O)OCC(=O)NCC2CCCO2)cc1 (stereo not shown),4.87
16,CCN(CC)CCN(Cc1cc2cc3c(cc2[nH]c1=O)OCO3)C(=S)NCC1CCCO1 (stereo not shown),-2.45
17,N#CCSc1n[nH]c2nc3c(c(=O)n12)C1(CCCCC1)Cc1ccccc1-3,14.7
18,CCCn1nc2cc(C(=O)NCc3ccc4c(c3)OCO4)ccc2c1OCC,10.4
19,CCOC(=O)c1cc(S(=O)(=O)N2CCC(C)CC2)cn1C,17.6
20,CCc1cc(=O)oc2cc(C)cc(OC(C)C(=O)NCc3cccnc3)c12 (stereo not shown),5.71
21,Cc1ccc(NC(=O)CN2C(=O)NC(Cc3ccccc3)C2=O)c(Br)c1 (stereo not shown),1.21
22,CCCOc1ccc(-c2c(C(=O)N/N=C(\C)COc3ccccc3)nnn2-c2nonc2N)cc1,18.4

row,SMILES,"hERG current change (%, negative = inhibition) at 1uM [%]"
1,Cn1cc(CN(CCO)Cc2cccs2)c(-c2cccc(Cl)c2)n1,4.15
2,C=CCNC(=O)Cc1ccc(S(=O)(=O)N2CCOCC2)s1,12.1
3,CN(CC(=O)Nc1ccc(F)cc1)C(=O)CSc1nccn1C,-0.256
4,Cc1ccc(OCC(COCc2ccccc2)NC(C)C)cc1.O=C(O)C(=O)O (stereo not shown),10.1
5,O=C(N/N=C/c1c[nH]c2ccccc12)c1ccc(O)c(O)c1,9.27
6,C#C[C@]1(O)CCC2C3CCC4=CC(=O)CC[C@@H]4C3CC[C@@]21C (stereo partly shown),5.92
7,COCCn1c(=O)[nH]c2cc(C(=O)Nc3cccc(F)c3)ccc2c1=O,-1.16
8,Cc1cccc(C)c1OCC(=O)NCc1nnc(SCC(=O)NC2CCCCC2)n1C,14.2
9,C=CCOc1ccccc1CNCc1ccc(F)cc1.Cl,-1.43
10,Cn1c(=O)[nH]c(=O)c2c1nc(N1CCN(c3ccccc3)CC1)n2CCSc1ncccn1,-6.57
11,CC(CCc1ccccc1)N1CCN(Cc2ccccc2)CC1 (stereo not shown),-49.3
12,CCOP(=O)(c1ccccc1)C(O)c1ccc(Br)cc1 (stereo not shown),-15.5
13,O=C(NN1C(=O)C2C(C1=O)C1C=CC2C12CC2)c1ccncc1 (stereo not shown),9.22
14,CC(C)CN1C(=O)N(c2ccc(Cl)cc2)C(C)(O)CC1(C)C (stereo not shown),21.6
15,Cc1ccc(C2NC(=O)c3sc(=S)n(-c4ccccc4)c3N2)cc1 (stereo not shown),32.7
16,COc1ccc(OCC(=O)NCCNC(=O)c2ccncc2)cc1,1.05
17,CC(C)(C)NC(=O)CN(C(=O)c1ccc(CN2CCOCC2)o1)c1ccc2c(c1)OCCO2,10.1
18,O=C(NCc1cccnc1)[C@@H]1CC=C[C@@H]2CCN(Cc3ccccc3)C(=O)[C@@H]21,12.3
19,CC(C)C(C)NC(=O)COc1ccc(S(=O)(=O)N2CCOCC2)cc1[N+](=O)[O-] (stereo not shown),16
20,Cc1nc2ccccc2c(=O)n1Cc1ccco1,10.7
21,NC(=O)CC(NSc1ccccc1[N+](=O)[O-])C(=O)O (stereo not shown),-5.77
22,CCCCn1c(=O)c(C(=O)NCc2ccc(Cl)cc2)c(O)c2ccccc21,18.9

row,SMILES,"hERG current change (%, negative = inhibition) at 1uM [%]"
1,CCn1c(COc2ccc(OC)cc2)nnc1SCC(=O)Nc1cc(OC)ccc1OC,4.05
2,COC(=O)c1cc(CNC(=O)c2ccc(O)c(Cl)c2)ccc1OC,6.89
3,O=C(NCc1ccccn1)c1nc(Cn2ccc([N+](=O)[O-])n2)no1,11.2
4,CC(C)n1cc(CN2CCC(n3nccc3NC(=O)CCCc3ccccc3)CC2)cn1,-0.529
5,CCOC(=O)C1CCN(C(=O)/C(=C/c2ccccc2)NC(=O)c2ccccc2)CC1,-3.18
6,CCc1ccc2[nH]c(=O)c(C(c3nnnn3CC3CCCO3)N3CCCc4ccccc43)cc2c1 (stereo not shown),19.9
7,Cc1cc(OCC(=O)Nc2ccc(N3CCN(C)CC3)cc2)ccc1Cl,2.28
8,Cl.O=C(NCCCn1ccnc1)c1ccc(Br)cc1,0.254
9,NC(=O)N/N=C/c1ccc(N2CCOCC2)s1,-1.89
10,COc1ccc(C(=O)c2c3ccc(OC)cc3[n+]([O-])n2CCCC(N)=O)cc1,5.88
11,CCOCCCNC(=O)c1ccc2c(=O)n(Cc3ccc(OC)cc3)c(=O)[nH]c2c1,23.2
12,CCOc1ccc(NC(=O)C2CCCN(S(=O)(=O)c3c(C)noc3C)C2)cc1 (stereo not shown),12.2
13,O=C(CN(Cc1cccs1)C(=O)CCC(=O)Nc1ccccn1)NCc1ccccc1,7.02
14,Cc1cc(C(=O)O)ccc1NCc1ccncc1,15.2
15,O=C(Cn1cnc2c(nnn2Cc2ccc(Cl)cc2)c1=O)NCc1ccco1,13.5
16,CC(=O)NCC(=O)N(C)C(C(=O)Nc1ccc2c(c1)OCCO2)c1ccc(C)cc1 (stereo not shown),8.77
17,CN(C)c1cccc2c1c(NC(=O)Nc1ccc(Cl)cc1Cl)nn2C,3.13
18,O=C(CSc1nnc(COc2ccc(F)cc2)o1)N1CCCCC1,16.1
19,CCCCc1ccc(NC(=O)OC)cc1,4.71
20,CC(=O)Nc1cccc(NC(=O)CN2c3cccc4cccc(c34)S2(=O)=O)c1,4.14
21,COc1ccc2c(c1)CCCN2C(N)=Nc1ccc(Cl)cc1,-9.55
22,CSCCC(NC(=O)c1ccc(Cl)cc1Cl)C(=O)NNC(=O)c1csc(N2CCOCC2)n1 (stereo not shown),-9.64
